Measurements reported in article PMC9663306.
Results are given in words; binding and its absence hold for the method and conditions named. Binding seen in cells or lysates may run through a third protein. Some results given as binding are weak or reduced against the parent protein; the word gives no strength. Tags and fused reporters may be left off the sequences shown.

T1: SF-IL-17RC (murine IL-17RC with C-terminal 2xStrep-3xFlag tag), in ST2 cells (mouse) (UniProt Q8K4C2)
T1 sequence (chain, N-glycosylated (100 kDa and 150 kDa forms)): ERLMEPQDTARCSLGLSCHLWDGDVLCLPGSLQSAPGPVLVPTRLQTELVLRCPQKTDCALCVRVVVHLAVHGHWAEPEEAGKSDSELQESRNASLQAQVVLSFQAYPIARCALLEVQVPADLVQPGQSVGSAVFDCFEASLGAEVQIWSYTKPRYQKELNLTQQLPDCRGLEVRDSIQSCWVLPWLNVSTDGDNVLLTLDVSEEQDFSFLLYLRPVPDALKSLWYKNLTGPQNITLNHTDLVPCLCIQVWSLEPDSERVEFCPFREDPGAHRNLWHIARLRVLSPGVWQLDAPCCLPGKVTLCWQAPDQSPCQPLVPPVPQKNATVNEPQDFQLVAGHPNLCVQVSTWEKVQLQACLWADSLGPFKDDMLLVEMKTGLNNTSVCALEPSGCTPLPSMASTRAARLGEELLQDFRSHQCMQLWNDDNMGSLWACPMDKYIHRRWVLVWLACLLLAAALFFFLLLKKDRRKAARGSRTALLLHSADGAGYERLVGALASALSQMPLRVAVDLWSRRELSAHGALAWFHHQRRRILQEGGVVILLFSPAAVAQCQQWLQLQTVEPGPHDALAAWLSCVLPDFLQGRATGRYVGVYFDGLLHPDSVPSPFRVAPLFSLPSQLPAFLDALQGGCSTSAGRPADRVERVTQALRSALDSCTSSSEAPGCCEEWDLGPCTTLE

T2: Strep-Flag-tagged mouse IL-17A (mouse) (UniProt Q62386)
T2 sequence: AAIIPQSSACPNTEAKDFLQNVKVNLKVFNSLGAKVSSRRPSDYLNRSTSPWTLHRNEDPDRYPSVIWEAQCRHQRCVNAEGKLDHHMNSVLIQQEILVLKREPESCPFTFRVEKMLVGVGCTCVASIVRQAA

B1: Myc-CMTM4^3-Tm6 (CMTM4 with its third transmembrane domain replaced by that of CMTM6) (protein, UniProt Q8CJ61 1-110; Q9CZ69 95-131; Q8CJ61 148-208)
chain: MRGGEELDGFEGEASSTSMISGASSPYQPTTEPVSQRRGLAGLRCDPDYLRGALGRLKVAQVILALIAFICIETIMECSPCEGLYFFEFVSCSAFVVTGVLLILFSLNLHDRVDTGKVKSSDFYITLGTGCVFLLASIIFVSTHSGTGAEIAAVIFGFLATAAYAVSTFLAMQKWRVSVRQQSTNDYIRARTESRDVDSRPEIQRLDT
B2: Myc-CMTM4^4-Tm6 (CMTM4 with its fourth transmembrane domain replaced by that of CMTM6) (protein, UniProt Q8CJ61 1-147; Q9CZ69 132-183)
chain: MRGGEELDGFEGEASSTSMISGASSPYQPTTEPVSQRRGLAGLRCDPDYLRGALGRLKVAQVILALIAFICIETIMECSPCEGLYFFEFVSCSAFVVTGVLLILFSLNLHMRIPQINWNLTDLVNTGLSTFFFFIASIVLAALNHKTSAEIAAIVFGFLASSMFLLDFVVMLCEKLRESPLRKPENNAKVEALTEPLNA
B3: ACT1 (endogenous, mouse ST2 cells) (protein, UniProt Q8N7N6 1-555)
chain: MNRSIPVEVDESEPFPSQLLKPIPEYSPEEELEPPAPNTRNMAPSSLSVLQCPPLKLANHQPVSQQVTCLRAKVLEEGEASFFRRHPELGKDISSCSSGASEPESELGALPPEHRFTLTEKRNRWLGSQLSAASPDTGHESDKSDPSLPNALADSFSGGQEMMPRPRPRPGPHRHRAAPDVPTIDTGYDSQPQDVLGIRQLERPLPLTSSCYLQDLPGPLRSRELPPQFELERYPMNAQLLPPHPSPQAPWNCQYYCPGGPYHHQVPHGHGYPPAAAYQQVLQPALPGQVLPGARARGPRPVQKVILNDSSPQDQEERPAQRDFSFPRLPRDQLYRPPSNGVEAPEESLDLPAELRPHGPQAPSLAAVPRPPSNPLARGTLRTSNLPEELRKVFITYSMDTAMEVVKFVNFLLVNGFQTAIDIFEDRIRGIDIIKWMERYLRDKTVMIIVAISPKYKQDVEGAESQLDEDEHGLHTKYIHRMMQIEFISQGSMNFRFIPVLFPNAKKEHVPTWLQNTHVYSWPKNKKNILLRLLREEEYVAPPRGPLPTLQVVPL
B4: TRAF6 (endogenous, mouse ST2 cells) (enzyme, UniProt P70196 1-530)
chain: MSLLNCENSCGSSQSSSDCCAAMAASCSAAVKDDSVSGSASTGNLSSSFMEEIQGYDVEFDPPLESKYECPICLMALREAVQTPCGHRFCKACIIKSIRDAGHKCPVDNEILLENQLFPDNFAKREILSLTVKCPNKGCLQKMELRHLEDHQVHCEFALVNCPQCQRPFQKCQVNTHIIEDCPRRQVSCVNCAVSMAYEEKEIHDQSCPLANIICEYCGTILIREQMPNHYDLDCPTAPIPCTFSVFGCHEKMQRNHLARHLQENTQLHMRLLAQAVHNVNLALRPCDAASPSRGCRPEDPNYEETIKQLESRLVRQDHQIRELTAKMETQSMYVGELKRTIRTLEDKVAEMEAQQCNGIYIWKIGNFGMHLKSQEEERPVVIHSPGFYTGRPGYKLCMRLHLQLPTAQRCANYISLFVHTMQGEYDSHLPWPFQGTIRLTILDQSEALIRQNHEEVMDAKPELLAFQRPTIPRNPKGFGYVTFMHLEALRQGTFIKDDTLLVRCEVSTRFDMGGLRKEGFQPRSTDAGV
B5: Myc-tagged CMTM6 (protein, UniProt Q9CZ69 1-183)
chain: MENGAVYSPTTEAAPGTGRGARSGLAAYFVLGRLPWHRRILKGLQLLLSLLAFICEEVVSECGLCGGLYFFEFVSCSAFLLSLLLLIVYCTPVHDRVDTGKVKSSDFYITLGTGCVFLLASIIFVSTHSGTSAEIAAIVFGFLASSMFLLDFVVMLCEKLRESPLRKPENNAKVEALTEPLNA
B6: Myc-CMTM4^1-Tm6 (CMTM4 with its first transmembrane domain replaced by that of CMTM6) (protein, UniProt Q9CZ69 1-67; Q8CJ61 84-208)
chain: MENGAVYSPTTEAAPGTGRGARSGLAAYFVLGRLPWHRRILKGLQLLLSLLAFICEEVVSECGLCGGLYFFEFVSCSAFVVTGVLLILFSLNLHMRIPQINWNLTDLVNTGLSTFFFFIASIVLAALNHKTGAEIAAVIFGFLATAAYAVSTFLAMQKWRVSVRQQSTNDYIRARTESRDVDSRPEIQRLDT
B7: Myc-CMTM4^2-Tm6 (CMTM4 with its second transmembrane domain replaced by that of CMTM6) (protein, UniProt Q8CJ61 1-83; Q9CZ69 68-94; Q8CJ61 111-208)
chain: MRGGEELDGFEGEASSTSMISGASSPYQPTTEPVSQRRGLAGLRCDPDYLRGALGRLKVAQVILALIAFICIETIMECSPCEGLYFFEFVSCSAFLLSLLLLIVYCTPVHMRIPQINWNLTDLVNTGLSTFFFFIASIVLAALNHKTGAEIAAVIFGFLATAAYAVSTFLAMQKWRVSVRQQSTNDYIRARTESRDVDSRPEIQRLDT
B8: Myc-tagged CMTM1 (protein, UniProt F6U6C2 1-303)
chain: MNPASARRESGGDGSRRESRRLTLRPRVLDASSPSDSQAYAASAPPHQGPSVPGTPASQGPSVPGTPASQGPSVPGTPASQGPSVPGTPASQGPSVPGTPSRQQSFIRATPIRQQSFIRAIPSRQRPSVQAIPSSQRPLVHVIPSSQRPSVRATPSSQRPSVRATPSSQRPSCITATSVFCFVIGGAQELFVVIMIQETCIVLFFIIIYLVTLQTTMACIHWPLLDLINSAISTVFLGIVGIVVIGKKNTKDLCYAGGILCLSAAVLCVIDALLFTEKRRNKAKSSLARETKLSATQLRQKQH
B9: Myc-tagged CMTM3 (protein, UniProt Q99LJ5 1-184)
chain: MWPPDAEPEPDPESAHGPRSGRTVPGLRALLPARAFLCSLKGRLLLAESGLSFITFICYVVSSASAFLTVPLLEFLLAVYFLFADAMQLNDKWQGLCWPMMDFLRCVTAALIYFVISITAVAKYSDGAYKAAGVFGFFATIVFAIDFYLIFNEVAKFLKQGDSGNETTAHRTEEENSNSDSDSD
B10: Myc-tagged CMTM5 (protein, UniProt Q9D6G9 1-156)
chain: MFSAWDRRERPPEEGAAAGLQGFGVDKTFLSSLKGILLETELALTFIIFICFTASISAYMAAALLEFLITLAFLFLCATQYYQRFDRLNWPCLDFLRCLSAIVIFLVVSFAAVTSREGAAIAAFVFGIILVSVFAYDAFKIYRTELMPSTTEGDQQ
B11: Myc-tagged CMTM7 (protein, UniProt Q9ESD6 1-167)
chain: MSHGSGLVRTTCSSGGALGPGQPSEGLLDRVYPLTHGALFKVAQMVTLLIAFICVRSSVPIDYGAHSFFEVVTMCDLIMILIFYLVHLFRFYRVLTCISWPLSELLHYLIGTLLLLIASIVIASKSYNQSGLVAGAIFGFLASFLCLASLWLSYKITCITQSSDASA
B12: Myc-tagged CMTM8 (protein, UniProt Q9CZR4 1-173)
chain: MEEQQRARSHTVTTTTSSFAENFSTTSSSFAYDREFLRTPPGLLIVAEIVLGLLVWTLIAGTEYFRVPAFGWVMFVAVFYWVLTVFFLIVYITLTYTRIPQVPWTTVGLCFNGSAFVLYFSAAIVDASSVSPEKEGHNFNSWAASSFFAFLVTICYAGNTYFSFIAWRSRTAQ

Columns and labels:
[1] = target: T1, SF-IL-17RC (murine IL-17RC with C-terminal 2xStrep-3xFlag tag), in ST2 cells (mouse); assay: co-IP; Flag IP from lysates of ST2 cells retrovirally transduced with SF-IL-17RC together with Myc-tagged CMTM4, CMTM6 or chimeric proteins, immunoblot
[2] = target: T2, Strep-Flag-tagged mouse IL-17A (mouse); assay: co-IP; ST2 cells (wild-type; Cmtm4−/− beside them) stimulated with SF-IL-17A (500 ng/ml, 15 min) or left unstimulated with SF-IL-17A added post lysis; anti-FLAG M2 agarose IP from 1% DDM lysates, immunoblot; only the target purified
[3] = target: T1, SF-IL-17RC (murine IL-17RC with C-terminal 2xStrep-3xFlag tag), in ST2 cells (mouse); assay: co-IP; Flag IP from lysates of Cmtm4−/− ST2 cells transduced with Myc-tagged members of the CMTM family (CMTM1–8) together with SF-IL-17RC, immunoblot

Binder	binding [1]	binding [2]	binding [3]
B1	binds	–	–
B2	binds	–	–
B3	–	binds	–
B4	–	binds	–
B5	no binding	–	no binding
B6	no binding	–	–
B7	no binding	–	–
B8	–	–	no binding
B9	–	–	no binding
B10	–	–	no binding
B11	–	–	no binding
B12	–	–	no binding
